Variants at the background level are over-represented here.

B1: tRNA (parent)
chain: CUCUCGGUAGCCAAGUUGGUUUAAGGCGCAAGACUUUAAUUUAUCACUACGAAAUCUUGAGAUCGGGCGUUCGACUCGCCCCCGGGAGAUUUUUUCCUCGAGCAA

In this series the parent is B1. Description: nonsense suppression (GFP-seq) (ratio to wild type); higher = more function; SUP4oc tRNA, yeast GFP reporter sort-seq. The gist of the method:
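Yeast were grown in raffinose/galactose medium with 80 mg/L adenine, each strain bearing a genome-integrated ochre-suppressor tRNA variant from a ~3% random-mutation library, a galactose-driven GFP ochre reporter, and RFP. After sorting into GFP/RFP bins, every bin was sequenced on an Illumina platform at phred ≥30. The GFPSEQ value, a measure of nonsense suppression, is the weighted bin median GFP/RFP relative to the unmutated parent tRNA, using each variant's estimated cell share per bin as the weight. Only variants with ≥100 reads and ≥30 cells were included.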
U22C U63C: the nonsense suppression turned out to be 1.2. Under U17C U71C C83A stands at most 0.026; under U8C U20C G69A, at most 0.026. Under U55C G59A stands at most 0.026; under C11A U20A, at most 0.026; under U35C C77U G86A, at most 0.026. Under A14U A24U A60C G67A U70C stands at most 0.026. U8C U58A G73U: the nonsense suppression was at most 0.026. Turning to G15U C72U, the nonsense suppression was at most 0.026. On to G7U G84C, for which the nonsense suppression was at most 0.026.

On to U22C C56G A62G, for which the nonsense suppression was at most 0.026. Under C29U C82U stands 0.224.

As to G6U A9U A33U G66U, the nonsense suppression was at most 0.026. Consider C1U C56G C80A, for which the nonsense suppression was at most 0.026. Under U8G C56G C77G stands at most 0.026. Under A9C A30C G32A stands at most 0.026. Under C1U U4C A62U G88U stands at most 0.026; under C11G C12A A13C C29A U55C G61C C75G, at most 0.026; under G6U C27A, at most 0.026. A74G U76C: the nonsense suppression is at most 0.026. Under G6A G78A stands 0.037; under A60C G69U U70G C83A, at most 0.026; under U8C U21A U57A, at most 0.026. Under G6C U17G stands at most 0.026.

On to U8C C12A C68A C72U, for which the nonsense suppression is at most 0.026. Under C64U A74U stands at most 0.026; under U55A U57C G66C A74U, at most 0.026. Under G7A G32A C75G stands at most 0.026. Under U22C G28U stands at most 0.026. As to G28C U76C, the nonsense suppression was found to be 0.799. Under U17C G19A C27G stands at most 0.026.

On to U2G G6A A30C G32U G67C G73C A87C, for which the nonsense suppression was at most 0.026. Under U63G C72U stands 0.0334. As to A33G A54C U57G, the nonsense suppression is at most 0.026. Regarding G18A A23G, the nonsense suppression is at most 0.026. Under G25A C34A stands at most 0.026. Under A23C G86C stands at most 0.026. With U4C C11G G26C G61A C83G, the nonsense suppression was at most 0.026. As to G73C G88C, the nonsense suppression is at most 0.026. Consider U8A U21A A23C C81U, for which the nonsense suppression was at most 0.026. A30G C34G U55G G69C C79A: the nonsense suppression is at most 0.026. Consider C3U C79G, for which the nonsense suppression was at most 0.026.

On to A13U G18A, for which the nonsense suppression was at most 0.026.

As to C1G G19U A60C U76A, the nonsense suppression is at most 0.026. In the case of U22A C27A, the nonsense suppression is at most 0.026. For G15U G25U, the nonsense suppression was at most 0.026.

Consider A9C G32C G59U C68G, for which the nonsense suppression was at most 0.026. Under A23C G25C C64A U76C G78U stands at most 0.026; under A14U A23G A62U G84A, at most 0.026; under U8G C82G C83U G88C, at most 0.026. In the case of G28A C82A, the nonsense suppression was at most 0.026. Under U55G G59A G73U stands at most 0.026. Under G7U U20A stands at most 0.026; under U2C G66A C80A, at most 0.026; under C29G A31G U70C G84U, at most 0.026. Under C1U U22G stands at most 0.026; under U4G U55G G73C A87U, at most 0.026; under C1A U4G G15A, at most 0.026.

With C29U A30G A54C C75A, the nonsense suppression was found to be 0.0386.

Regarding C77G G84U, the nonsense suppression is at most 0.026. As to G67A U71G C72U A74C, the nonsense suppression is at most 0.026. Turning to C3A G59U A87C, the nonsense suppression was at most 0.026. Under G6U A30G C34G G66A stands at most 0.026; under U63A U71C G78A, at most 0.026. Under C5U U57G stands at most 0.026; under U8C U17G A60C, at most 0.026. Regarding C56A G65C G85U, the nonsense suppression was at most 0.026. With C82A, the nonsense suppression was at most 0.026. Under C3U U22A stands 0.169; under G73U A89G, at most 0.026; under C1G G18C C68U G88U, at most 0.026.

On to U20A A23U U35G G85C, for which the nonsense suppression was at most 0.026.

Turning to C29U A62C, the nonsense suppression is at most 0.026.

Regarding G26U G67U, the nonsense suppression was at most 0.026.

C1A A31U U55G G61U G66C: the nonsense suppression was at most 0.026.

Regarding C5G C11G A23U G28U C34A, the nonsense suppression is at most 0.026. Turning to A33C U55C C64G U76C, the nonsense suppression was at most 0.026. Under C1G G10U U63C C64G stands at most 0.026; under C3U C11A U22G G59C, at most 0.026; under U17G G18U A33G G69A, at most 0.026.

Consider U63G C81A, for which the nonsense suppression was at most 0.026. Under A9C C82U G84A stands at most 0.026; under C27G C34U G65U G69U, at most 0.026; under A24C C27G, at most 0.026.

U17G A24U: the nonsense suppression worked out at 0.159. For C1U A9C G61A U70C G84C G85U, the nonsense suppression is at most 0.026. Under A9C A24G C34G stands at most 0.026.

Consider A54C A60G, for which the nonsense suppression was determined as 0.0773. As for G10U A13G G15U C56G G59A, the nonsense suppression is at most 0.026.

As for G28C U57C C81A G86U, the nonsense suppression is at most 0.026. As to U70A G73U, the nonsense suppression was at most 0.026. Under G61U A62G C68A G88U stands at most 0.026.

For the variant U17C A24C, the nonsense suppression was 0.276. Take G7A G10C G73A: the nonsense suppression is at most 0.026.

G7U G10A A23C G26U A60G G86C: the nonsense suppression was at most 0.026. Under U17G U57C stands at most 0.026; under U2G A9C U35A, at most 0.026. Under G85U G86C stands at most 0.026. Under C79G A89C stands at most 0.026; under C29U U55A, at most 0.026; under A14U C68A G86C, at most 0.026. C1A A23G C34U: the nonsense suppression was at most 0.026. Under C11U G18A stands at most 0.026. Under G32C A33U G84C stands at most 0.026; under A33U U57A, at most 0.026; under U63G U71G G85A, at most 0.026. Under C12A G78A stands 0.045. U71A C83G: the nonsense suppression is at most 0.026. A54C A60U G84C: the nonsense suppression was at most 0.026. Under G15U A23U C83G stands at most 0.026; under G18C C34G G88A, at most 0.026.

Consider U4A G32A A33U G78A, for which the nonsense suppression was at most 0.026. C1A U8A C12U U57A C75A: the nonsense suppression was at most 0.026.

As to C5A A24C U63C, the nonsense suppression is at most 0.026.

For the variant A9C G18A C64U, the nonsense suppression was at most 0.026. Under A23G C56U U57C G84C stands at most 0.026; under C3G U8G U21C C34U, at most 0.026.

For the variant U16A C27G, the nonsense suppression was at most 0.026.

Take C1A G59C C79A: the nonsense suppression is at most 0.026. As to C68G C75A C82A G86U, the nonsense suppression is at most 0.026. Under G7A A33U stands at most 0.026.

As for U4C C12G G25U A30U, the nonsense suppression is at most 0.026. Under U4G G69U stands at most 0.026.

Regarding U55C C81U, the nonsense suppression is at most 0.026.

For the variant A23C C56A C64U, the nonsense suppression was at most 0.026.

Take G19C U63C C83A: the nonsense suppression was 0.789. For the variant U8C G25C G28U, the nonsense suppression was at most 0.026.

With U21G A87U, the nonsense suppression was at most 0.026. As to A24U G32A U55A, the nonsense suppression was at most 0.026. Under C5G A9C G15U A30U U58G G61A stands at most 0.026; under C1A A60U G88U, at most 0.026; under C12G U35G U76C, at most 0.026. For the variant C3A U63A, the nonsense suppression is at most 0.026.

Regarding G15U U17C G18C C27U, the nonsense suppression was at most 0.026. Under A9G A89C stands at most 0.026; under A33G G61C U76A, at most 0.026. As to G10C G61A U70G C77U G88A, the nonsense suppression was at most 0.026. Under A74U C79U stands 0.0357.

Regarding U21A C34G G61A G84U, the nonsense suppression is at most 0.026. With A13U G73U C79G, the nonsense suppression was at most 0.026. Under U8A G26C A31U U55A U71A stands at most 0.026; under U55A A62U U76G G86C, at most 0.026.

With C29U A31G G32U A33G, the nonsense suppression is at most 0.026. For the variant G7C G86C A87C, the nonsense suppression was at most 0.026.

Regarding U2A C27A U76G, the nonsense suppression was at most 0.026.

C72G: the nonsense suppression is at most 0.026.

Regarding G28U A30G C64U G69C, the nonsense suppression was at most 0.026. Take C64U G78C: the nonsense suppression is at most 0.026. With U8A U17A G61A G85A, the nonsense suppression is at most 0.026.

Regarding C11A U17A C27U A62U, the nonsense suppression is at most 0.026. Under A14C U35G A62G stands at most 0.026. Under G6A C27A stands at most 0.026; under A14U A33C U71A, at most 0.026. For the variant G10C G19A U63C, the nonsense suppression is at most 0.026. Under C34G G65A C83U A87G stands at most 0.026; under A14C G66C, at most 0.026. On to A54G C80U, for which the nonsense suppression is at most 0.026. On to C1U C12U U22C C64A G86C, for which the nonsense suppression was at most 0.026. Under C3A G18C G86A stands at most 0.026. As for A24C A30G G65C G69A C83A A87C, the nonsense suppression was at most 0.026. Under U4A G7C G28U stands at most 0.026; under C11U C79G, at most 0.026. On to G10A C11A, for which the nonsense suppression was at most 0.026. A30U U70C C82G: the nonsense suppression is at most 0.026. Take C79A G84U: the nonsense suppression was at most 0.026. As for U4G G69C G86A, the nonsense suppression was at most 0.026. Under U70C C79A G88C stands at most 0.026.

These data come from the RNAGym collection of RNA variant scans (doi:10.1101/gad.245936.114).
